The results in this text go back to PubChem BioAssay AID463173 (ICCB-Longwood Screening Facility, Harvard Medical School, 2010).

The structures appear in SMILES notation. Among all 52,000 compounds or so, about 1,700 (3.3%) were called active. Cut-off read from the data, not from the text of the source: active = survival mostly below about 52% (no sharp cut-off); inactive = mostly above about 56%. This is one part of the list.

The assay deals with Wild type. The assay can be described thus: growth inhibition of S. aureus wild type versus tarO mutant, primary screen, teichoic acid synthesis inhibitors, RN4220, OD600 (AID 463173). Particulars: S. aureus RN4220 wild type/DeltatarO growth, OD600, 18 h, active compounds read low, screened at 18.75 µg/mL (by protocol).
On to `CCS(=O)(=O)c1nc(S(=O)(=O)c2ccc(C)cc2)c(NCc2ccc(Cl)cc2)s1`, for which the survival is inactive: 86%.
In the case of `Cc1ccc(S(=O)(=O)N2CCCc3cc(NC(=O)c4ccc(F)c(F)c4)ccc32)cc1`, the survival is inactive: 66%.
Regarding `CCOc1ccc(N(CC)S(=O)(=O)N2CCCC(C(=O)Nc3ccc(NC(C)=O)cc3)C2)cc1` (centres undefined), the survival was inactive: 86%.
With `O=C(COc1ccc2oc3c(c2c1)CCCC3)Nc1ccc(Cl)cc1`, the survival is inactive: 81%.
For the compound `CCOc1ccc(-c2c(C)nn3c(-c4ccccc4)c(C(=O)NCCOC)cnc23)cc1OCC`, the survival was active: -6%.
`COc1cccc(C(=O)Nc2cc(-c3ccccc3)nn2-c2ccccc2)c1`: the survival was inactive: 69%.
The figure for `Cc1ccc(CCNC(=O)c2cc3cc4cc(C)ccc4nc3s2)cc1` is inactive: 64%; for `COc1ccc(NC(=O)N(C(C)C)C2CCN(C(C)=O)CC2)c(OC)c1` it is active: -4%; for `CN(C)S(=O)(=O)N1CCC(n2cnc3cccnc32)CC1` it is inactive: 113%.
As for `COc1ccccc1Cn1c(CNS(=O)(=O)c2ccc(CC(C)C)cc2)nc2cccnc21`, the survival was inactive: 76%.
The figure for `CC(=O)N1CC=C2C(C#N)=C(N)C(C#N)(C#N)C(C)C2C1` (centres undefined) is inactive: 103%; for `CCOc1ccc(NC(=O)Cn2cc(C(=O)c3ccc(OCC)cc3)c(=O)c3cc4c(cc32)OCCO4)cc1` it is inactive: 87%; for `COc1cccc(NC(=O)CN2C(=O)COc3ccc(S(=O)(=O)N4CCCCCC4)cc32)c1` it is inactive: 97%.
For `O=C1C2=C(Nc3ccccc3SC2c2ccc(Cl)c(Cl)c2)c2ccccc21` (centres undefined), the survival is inactive: 73%.
The figure for `CCc1ccc(NC(=O)CC2C(=O)N(c3ccc(C)cc3)C(=O)N2CCc2ccncc2)cc1` (centres undefined) is inactive: 98%; for `COC(=O)Cc1c(C)c2cc3c(c(C)c2oc1=O)OCN(CCc1ccc(F)cc1)C3` it is inactive: 82%.
Turning to `COc1cccc(N2C(=O)C(CC(=O)Nc3ccc(F)cc3)N(CCC3=CCCCC3)C2=O)c1` (centres undefined), the survival was inactive: 77%.
With `COc1ccc(NC(=O)CN(C)S(=O)(=O)c2ccc(C(=O)N3CCOCC3)s2)cc1`, the survival is inactive: 73%.
As for `Nc1c(C(=O)NCc2ccc3c(c2)OCO3)nnn1CC(=O)Nc1ccc(Br)cc1`, the survival was inactive: 47%.
With `Cc1cccc(C)c1OCC(=O)N1CCC(c2nc3ccccc3o2)CC1` the figure was inactive: 81%; with `Cc1cccc(NC(=O)CSc2cn(CC(=O)N3CCCC3)c3ccccc23)c1C`, inactive: 98%; with `CC(=O)N1CCCc2cc(S(=O)(=O)N3CCCC(C(=O)NCc4ccccc4)C3)ccc21` (centres undefined), inactive: 97%.
Regarding `Cc1ccc(Cn2cc(C(=O)c3ccc(C)cc3)c(=O)c3ccc(C)nc32)cc1`, the survival was active: 20%.
With `CCc1ccc(-c2cc(C)no2)cc1S(=O)(=O)Nc1ccc(Cl)cn1` the figure was active: -1%.
